The text below walks through data of paper PMC5934895.

Sequences of proteins named here, by UniProt entry; tags and fusion partners are left off. Residues count along the entry.
UniProt P08670, residues 1-96: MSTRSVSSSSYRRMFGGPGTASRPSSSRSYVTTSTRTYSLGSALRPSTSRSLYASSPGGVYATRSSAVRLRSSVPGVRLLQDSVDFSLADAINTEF

Results are given in words; binding and its absence hold for the method and conditions named. In cells and extracts the contact can be indirect. Some binding calls cover weakened binding; strength is not graded here. Where a sequence is shown, tags or fusion partners need not be part of it.

The assay deals with GFP-tagged N-terminal vimentin fragment (1-96-GFP) (UniProt P08670). Briefly: co-IP; GFP-coprecipitation: cell lysates in NP-40 lysis buffer (10 mM Tris/HCl pH 7.5, 150 mM NaCl, 5 mM EDTA, 0.5% NP-40) on GFP-trap A beads, 4 °C, 15-120 min, three washes; immunoblot.

B1: FLAG-tagged Nup88(1-541) (domain or fragment, UniProt Q99567 1-541)
chain: MAAAEGPVGDGELWQTWLPNHVVFLRLREGLKNQSPTEAEKPASSSLPSSPPPQLLTRNVVFGLGGELFLWDGEDSSFLVVRLRGPSGGGEEPALSQYQRLLCINPPLFEIYQVLLSPTQHHVALIGIKGLMVLELPKRWGKNSEFEGGKSTVNCSTTPVAERFFTSSTSLTLKHAAWYPSEILDPHVVLLTSDNVIRIYSLREPQTPTNVIILSEAEEESLVLNKGRAYTASLGETAVAFDFGPLAAVPKTLFGQNGKDEVVAYPLYILYENGETFLTYISLLHSPGNIGKLLGPLPMHPAAEDNYGYDACAVLCLPCVPNILVIATESGMLYHCVVLEGEEEDDHTSEKSWDSRIDLIPSLYVFECVELELALKLASGEDDPFDSDFSCPVKLHRDPKCPSRYHCTHEAGVHSVGLTWIHKLHKFLGSDEEDKDSLQELSTEQKCFVEHILCTKPLPCRQPAPIRGFWIVPDILGPTMICITSTYECLIWPLLSTVHPASPPLLCTREDVEVAESPLRVLAETPDSFEKHIRSILQRSV
Consider B1, for which the binding entry was “binds”.
